Hit rate of the full screen: of about 3,200 compounds, about 300 (9.4%) showed activity. Only a part is listed here, and it is no random draw.
Test system: A673/TR/shEF
Assay: cell viability (LOESS-normalised, relative to median of negative controls) (log2 ratio); higher = more viable cells (less compound effect), active = hit call of the paper (over 3 MAD below the median)
Conditions: treatment time: 72 h
In short: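 Doxycycline, present or absent from 24 h before compounds, was used to induce EWS-FLI1 shRNA knockdown in A673/TR/shEF Ewing sarcoma cells at 1,500 per well in 384-well plates. Cells then received library compounds at two or more concentrations, or DMSO controls, for three days. Viability was measured by CellTiter-Glo luminescence on an Envision reader, and per-plate LOESS correction, division by the negative-control median and log2 transformation followed.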

[1] = 0.25 µM, library screen: screen1, EWS-FLI1 expression: high (no doxycycline)
[2] = 0.25 µM, library screen: screen1, EWS-FLI1 expression: low (doxycycline-induced shRNA knockdown)
[3] = 0.25 µM, library screen: screen2, EWS-FLI1 expression: high (no doxycycline)
[4] = 0.25 µM, library screen: screen2, EWS-FLI1 expression: low (doxycycline-induced shRNA knockdown)
[5] = 2.5 µM, library screen: screen1, EWS-FLI1 expression: high (no doxycycline)
[6] = 2.5 µM, library screen: screen1, EWS-FLI1 expression: low (doxycycline-induced shRNA knockdown)
[7] = 2.5 µM, library screen: screen2, EWS-FLI1 expression: high (no doxycycline)
[8] = 2.5 µM, library screen: screen2, EWS-FLI1 expression: low (doxycycline-induced shRNA knockdown)
[9] = 0.103 µM, library screen: screen3, EWS-FLI1 expression: high (no doxycycline)
[10] = 0.103 µM, library screen: screen3, EWS-FLI1 expression: low (doxycycline-induced shRNA knockdown)
[11] = 0.308 µM, library screen: screen3, EWS-FLI1 expression: high (no doxycycline)
[12] = 0.308 µM, library screen: screen3, EWS-FLI1 expression: low (doxycycline-induced shRNA knockdown)
[13] = 0.926 µM, library screen: screen3, EWS-FLI1 expression: high (no doxycycline)
[14] = 0.926 µM, library screen: screen3, EWS-FLI1 expression: low (doxycycline-induced shRNA knockdown)
[15] = 2.8 µM, library screen: screen3, EWS-FLI1 expression: high (no doxycycline)
[16] = 2.8 µM, library screen: screen3, EWS-FLI1 expression: low (doxycycline-induced shRNA knockdown)
[17] = 8.3 µM, library screen: screen3, EWS-FLI1 expression: high (no doxycycline)
[18] = 8.3 µM, library screen: screen3, EWS-FLI1 expression: low (doxycycline-induced shRNA knockdown)
[19] = 25 µM, library screen: screen3, EWS-FLI1 expression: high (no doxycycline)
[20] = 25 µM, library screen: screen3, EWS-FLI1 expression: low (doxycycline-induced shRNA knockdown)

Measured: cell viability (log2)

Nc1c2c(nc3ccccc13)CCCC2
inactive: [1] 0.0619 | [2] -0.0315 | [3] 0.123 | [4] 0.153 | [5] 0.0644 | [6] -0.00851 | [7] 0.0137 | [8] 0.0585

C[C@@H]1O[C@H](OC[C@H]2O[C@@H](Oc3c(-c4ccc(O)c(O)c4)oc4cc(O)cc(O)c4c3=O)[C@H](O)[C@@H](O)[C@@H]2O)[C@H](O)[C@H](O)[C@H]1O
inactive: [1] -0.0111 | [2] 0.0513 | [5] 0.125 | [6] 0.094

O=c1cc(-c2ccccc2)oc2cc(O)cc(O)c12
inactive: [1] 0.121 | [2] 0.009 | [5] 0.165 | [6] 0.16

COC(=O)c1ccccc1
inactive: [1] 0.0726 | [2] 0.05 | [5] 0.155 | [6] 0.0447

CCN(CC)C(=S)SSC(=S)N(CC)CC
inactive: [9] 0.0335 | [10] 0.117 | [3] 0.112 | [4] 0.121 | [11] -0.158 | [12] 0.0728
active: [1] -1.42 | [2] -0.538 | [13] -4.24 | [14] -2.11 | [5] -2.82 | [6] -1.78 | [7] -4.17 | [8] -0.213 | [15] -4.24 | [16] -4.26 | [17] -4.26 | [18] -4.27 | [19] -4.26 | [20] -4.25

C=C[C@@]1(C)CC(=O)[C@]2(O)[C@@]3(C)[C@@H](O)CCC(C)(C)[C@@H]3[C@H](O)[C@H](OC(C)=O)[C@@]2(C)O1
inactive: [3] 0.179 | [4] 0.0395 | [7] 0.202 | [8] -0.0301

C/C(=C(\CCOP(=O)(O)O)SC(=O)c1ccccc1)N(C=O)Cc1cnc(C)nc1N
inactive: [1] 0.115 | [2] 0.132 | [5] 0.107 | [6] 0.0772

CCCC(=O)NCCc1c2n(c3ccc(OC)cc13)Cc1ccccc1-2
inactive: [3] 0.13 | [4] 0.122 | [7] 0.156 | [8] 0.045

CCC(C(N)=O)c1ccccc1 (stereo unspecified)
inactive: [1] 0.0612 | [2] -0.0114 | [5] 0.141 | [6] -0.108

CC1(O)/C=C\C=C(\CO)C2CC(C)(C)C2(O)CC1 (stereo unspecified)
inactive: [1] 0.0666 | [2] 0.000836 | [5] 0.128 | [6] 0.00974

CCOc1cc(CC(=O)N[C@@H](CC(C)C)c2ccccc2N2CCCCC2)ccc1C(=O)O
inactive: [9] -0.000142 | [10] 0.0449 | [11] 0.00176 | [12] 0.0482 | [13] 0.0509 | [14] 0.0503 | [15] 0.0796 | [16] 0.0426 | [17] 0.137 | [18] 0.0933 | [19] 0.103 | [20] 0.0918

COc1cc2c(cc1OC)C1(O)C(=O)c3ccc(O)c(C(=O)O)c3OC1CO2 (stereo unspecified)
inactive: [1] -0.00498 | [2] 0.0907 | [5] 0.0685 | [6] 0.156

C#C[C@]1(O)CC[C@H]2[C@@H]3CCc4cc(O)ccc4[C@H]3CC[C@@]21C
inactive: [9] 0.118 | [10] -0.0292 | [1] 0.073 | [2] -0.00134 | [11] 0.163 | [12] 0.106 | [13] 0.103 | [14] 0.0863 | [5] 0.167 | [6] 0.0942 | [15] 0.118 | [16] 0.0746 | [17] 0.0672 | [18] 0.0743 | [19] 0.0815 | [20] 0.112

NC(CCCP(=O)(O)O)C(=O)O (stereo unspecified)
inactive: [3] 0.186 | [4] 0.0104 | [7] 0.135 | [8] 0.138

C[N+](C)(CCCCCC[N+](C)(C)CCCN1C(=O)c2cccc3cccc(c23)C1=O)CCCN1C(=O)c2cccc3cccc(c23)C1=O
inactive: [3] 0.21 | [4] 0.0792 | [7] 0.139 | [8] 0.0785

CC(C)=CC1C(CO)C1(C)C (stereo unspecified)
inactive: [1] 0.105 | [2] 0.00359 | [5] 0.117 | [6] 0.123

Cc1occc(=O)c1O
inactive: [1] 0.0659 | [2] 0.0622 | [5] 0.0741 | [6] 0.0222

NCCSSCCN
inactive: [1] 0.191 | [2] 0.0743 | [3] 0.16 | [4] 0.0654 | [5] 0.122 | [6] 0.081 | [7] 0.0665 | [8] 0.0319

CC(C)NCC(O)c1ccc(O)c(O)c1 (stereo unspecified)
inactive: [9] 0.0337 | [10] 0.0393 | [1] 0.165 | [2] 0.0305 | [3] 0.153 | [4] 0.0891 | [11] 0.0675 | [12] 0.099 | [13] 0.0632 | [14] 0.115 | [5] 0.207 | [6] 0.113 | [7] 0.117 | [8] 0.0246 | [15] 0.0893 | [16] 0.006 | [17] 0.0355 | [18] 0.0704 | [19] -0.0428 | [20] -0.0137

COc1c(N2C[C@@H]3CCCN[C@@H]3C2)c(F)cc2c(=O)c(C(=O)O)cn(C3CC3)c12
inactive: [9] 0.00217 | [10] 0.0476 | [1] 0.076 | [2] 0.0797 | [11] 0.0186 | [12] 0.0131 | [13] 0.0161 | [14] 0.0509 | [5] 0.147 | [6] 0.0675 | [15] 0.0634 | [16] 0.0526 | [17] -0.0149 | [18] 0.05 | [19] 0.0823 | [20] 0.0467

COc1ccc(C(=O)c2ccccc2)c(O)c1
inactive: [1] 0.0945 | [2] 0.105 | [5] 0.159 | [6] 0.225

COc1ccc(C(=O)CC(=O)c2ccc(C(C)(C)C)cc2)cc1
inactive: [1] 0.117 | [2] 0.0122 | [5] 0.133 | [6] -0.0201

Cc1ccc(C(C)C)c(O)c1C(=O)O
inactive: [1] 0.112 | [2] 0.00973 | [5] 0.164 | [6] 0.0715

CCCC1O[C@@H]2C[C@H]3[C@@H]4CCC5=CC(=O)C=C[C@]5(C)[C@H]4[C@@H](O)C[C@]3(C)[C@]2(C(=O)CO)O1 (stereo partly specified)
inactive: [9] 0.0449 | [10] 0.0616 | [1] 0.142 | [2] 0.024 | [3] 0.237 | [4] 0.0675 | [11] 0.111 | [12] 0.07 | [13] 0.126 | [14] 0.0826 | [5] 0.133 | [6] 0.112 | [7] 0.164 | [8] 0.106 | [15] 0.0485 | [16] 0.156 | [17] 0.0523 | [18] 0.0811 | [19] 0.0554 | [20] 0.107

COc1cc(C(C)=O)ccc1OCCCN1CCC(c2noc3cc(F)ccc23)CC1
inactive: [9] 0.0657 | [10] 0.0535 | [11] 0.0227 | [12] 0.0553 | [13] 0.0575 | [14] 0.0415 | [15] 0.0423 | [16] 0.0146 | [17] -0.00637 | [18] 0.0589 | [19] 0.0452 | [20] 0.0492

CCCCCCCCCCCCCCCCCCOCC(COP(=O)([O-])OCC[N+](C)(C)C)OC (stereo unspecified)
inactive: [3] 0.195 | [4] 0.168 | [7] 0.13 | [8] 0.0442

CC(C)c1c(O)ccc2c1CC[C@H]1C(C)(C)CCC[C@]21C
inactive: [1] 0.0946 | [2] 0.115 | [5] 0.166 | [6] 0.269

O=C(NCC1CCCO1)c1cc(-c2ccccc2)nc2ccccc12 (stereo unspecified)
inactive: [1] 0.0071 | [2] 0.138 | [5] 0.132 | [6] 0.0289

COC(=O)c1c(C)[nH]c(C)c1C(=O)c1ccccc1Cc1ccccc1
inactive: [3] 0.144 | [4] 0.111 | [7] 0.0878 | [8] 0.0692

O=C1O/C(=C/Br)CCC1c1cccc2ccccc12 (stereo unspecified)
inactive: [3] 0.145 | [4] 0.144 | [7] 0.118 | [8] 0.163

Nc1nc(N)c2nc(CNc3ccc(C(=O)N[C@@H](CCC(=O)O)C(=O)O)cc3)cnc2n1
inactive: [3] 0.137 | [4] 0.126 | [5] 0.122 | [6] 0.141 | [7] 0.123 | [8] 0.134
active: [1] -1.62 | [2] -0.186

CC(C(=O)O)c1cccc(C(=O)c2ccccc2)c1 (stereo unspecified)
inactive: [9] 0.106 | [10] 0.0412 | [1] 0.12 | [2] -0.0201 | [3] 0.204 | [4] 0.13 | [11] 0.093 | [12] 0.102 | [13] 0.0295 | [14] 0.058 | [5] 0.103 | [6] 0.0158 | [7] 0.122 | [8] 0.173 | [15] 0.145 | [16] 0.11 | [17] 0.0932 | [18] 0.0536 | [19] 0.0365 | [20] 0.131

CC1=C(C(=O)Nc2cc3cn[nH]c3cc2F)C(c2ccc(C(F)(F)F)cc2)CC(=O)N1 (stereo unspecified)
inactive: [9] 0.104 | [10] 0.079 | [11] -0.014 | [12] 0.0534 | [13] 0.0879 | [14] 0.0725 | [15] 0.103 | [16] 0.0173 | [17] 0.106 | [18] 0.0222 | [19] 0.0646 | [20] -0.122

Reference: the supplement of paper PMC6089552
